Reference: paper PMC11763304
These are yes or no findings as the source states them, for the method shown. Binding seen in cells or lysates may run through a third protein. Some entries that bind do so weakly or less than the wild type.

Amino acid sequences for entries named in this document (tags omitted). A change or cut given only in a name is not applied to a line headed by its entry. Residues count along the entry.
UniProt Q14457: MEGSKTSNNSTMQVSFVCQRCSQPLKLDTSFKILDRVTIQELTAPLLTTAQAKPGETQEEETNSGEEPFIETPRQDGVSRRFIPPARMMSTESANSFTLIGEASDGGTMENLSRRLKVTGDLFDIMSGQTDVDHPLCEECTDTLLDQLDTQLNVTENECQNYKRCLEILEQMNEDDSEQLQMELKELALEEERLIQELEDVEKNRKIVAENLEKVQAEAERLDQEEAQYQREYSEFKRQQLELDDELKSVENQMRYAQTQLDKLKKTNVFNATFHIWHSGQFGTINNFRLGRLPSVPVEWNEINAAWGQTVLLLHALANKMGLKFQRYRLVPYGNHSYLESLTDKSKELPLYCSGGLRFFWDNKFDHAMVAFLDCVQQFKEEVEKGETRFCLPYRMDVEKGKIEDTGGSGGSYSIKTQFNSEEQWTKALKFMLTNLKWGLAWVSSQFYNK
GST-Beclin 1^141–450 (which lacks the BH3 domain): residues 141-450 of Q14457
GST-Beclin 1^248–450 (which lacks both the BH3 and coiled-coil (CC) domains): residues 248-450 of Q14457
GST-Beclin 1^350–450 (which consists of the BARA domain): residues 350-450 of Q14457
GST-Beclin 1^350–400: residues 350-400 of Q14457
GST-Beclin 1^400–450: residues 400-450 of Q14457

Legend:
FLAG-tagged Beclin 1 [1] = target: FLAG-tagged Beclin 1 (UniProt Q14457); assay: co-IP; HEK293 cells co-transfected; bait immunoprecipitated from cleared lysate with anti-FLAG (M2) or anti-HA (12CA5) overnight at 4 °C, Protein A agarose; control mouse IgG; FE65 detected with anti-FE65 (E20) or anti-myc
[2] = target: GST-Beclin 1^248–450 (which lacks both the BH3 and coiled-coil (CC) domains) (UniProt Q14457); assay: pull-down; bacterially expressed, purified GST-tagged bait on glutathione-Sepharose 4B, incubated in transfected cell lysate overnight at 4 °C; lysis buffer 50 mM Tris-HCl pH 7.5, 150 mM NaCl, 1 mM EDTA, 1% Triton X-100; three washes; Western blot; only the target purified
GST-Beclin 1^350–400 = GST-Beclin 1^350–400 (UniProt Q14457); assay: as above
[3] = target: GST-Beclin 1^350–450 (which consists of the BARA domain) (UniProt Q14457); assay: as above
GST-Beclin 1 = GST-Beclin 1 (UniProt Q14457); assay: as above
[4] = target: GST-Beclin 1^141–450 (which lacks the BH3 domain) (UniProt Q14457); assay: as above
GST-Beclin 1^400–450 = GST-Beclin 1^400–450 (UniProt Q14457); assay: as above
FLAG-tagged Beclin 1 [5] = target: FLAG-tagged Beclin 1 (UniProt Q14457); assay: proximity ligation; Duolink in situ PLA in transfected, fixed HEK293 cells; goat anti-FE65 (E20) and mouse anti-FLAG (M2); PLA signals per cell

binding (FLAG-tagged Beclin 1 [1]): binds
binding [2]: binds
binding (GST-Beclin 1^350–400): binds
binding [3]: binds
binding (GST-Beclin 1): binds
binding [4]: binds
binding (GST-Beclin 1^400–450): no binding
binding (FLAG-tagged Beclin 1 [5]): binds
B1: FE65 (wild-type, pCI-FE65wt) (protein, UniProt O00213 1-710)
chain: MSVPSSLSQSAINANSHGGPALSLPLPLHAAHNQLLNAKLQATAVGPKDLRSAMGEGGGPEPGPANAKWLKEGQNQLRRAATAHRDQNRNVTLTLAEEASQEPEMAPLGPKGLIHLYSELELSAHNAANRGLRGPGLIISTQEQGPDEGEEKAAGEAEEEEEDDDDEEEEEDLSSPPGLPEPLESVEAPPRPQALTDGPREHSKSASLLFGMRNSAASDEDSSWATLSQGSPSYGSPEDTDSFWNPNAFETDSDLPAGWMRVQDTSGTYYWHIPTGTTQWEPPGRASPSQGSSPQEESQLTWTGFAHGEGFEDGEFWKDEPSDEAPMELGLKEPEEGTLTFPAQSLSPEPLPQEEEKLPPRNTNPGIKCFAVRSLGWVEMTEEELAPGRSSVAVNNCIRQLSYHKNNLHDPMSGGWGEGKDLLLQLEDETLKLVEPQSQALLHAQPIISIRVWGVGRDSGRERDFAYVARDKLTQMLKCHVFRCEAPAKNIATSLHEICSKIMAERRNARCLVNGLSLDHSKLVDVPFQVEFPAPKNELVQKFQVYYLGNVPVAKPVGVDVINGALESVLSSSSREQWTPSHVSVAPATLTILHQQTEAVLGECRVRFLSFLAVGRDVHTFAFIMAAGPASFCCHMFWCEPNAASLSEAVQAACMLRYQKCLDARSQASTSCLPAPPAESVARRVGWTVRRGVQSLWGSLKPKRLGAHTP
